Test results taken from PubChem BioAssay AID588855 (National Center for Advancing Translational Sciences (NCATS), 2011).
Values joined by “and” are separate entries in the source; they are usually repeats but may differ in a detail not shown here. Identical values can stand only once. Out of some 410,000 compounds screened, about 5,000 (1.2%) were called active. Inconclusive results, whose numbers are uncertain, are shown with a selection of clear calls. Calls follow the shape of the dose curve; as a rule, active = well fitted inhibition curve with a large enough effect; inconclusive = small, poorly fitted or top-dose-only effect; inactive = no such curve, though single readings can be large or run the other way. Where the call is inconclusive, the potency comes from a doubtful curve fit.
Potency is read from the fitted curve at half-maximal effect; tags tell the direction and shape of the fitted curve.

Assay: qHTS for Inhibitors of TGF-b; also: nearly all actives have a fitted effect of over 65% in size
Conditions: HepG2 CAGA-GFP TGF-b/SMAD3 reporter, GFP fluorescence, 18 h, TGF-beta stimulated, 500 pg/mL final; series mostly up to 46.1 µM
Outline: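 HEPG2 CAGA-GFP cells (1000/well, DMEM with 1% FBS) were pre-incubated 2 h at 37 degrees C, given compound by pin tool, then stimulated with TGF-beta at 500 pg/mL final for 18 h before per-cell GFP fluorescence imaging.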
In the case of COc1cc(Cn2c(N)c(C(=O)NCc3ccco3)c3nc4ccccc4nc32)cc(OC)c1OC, the Potency is reported as inconclusive: 35.5 µM [inhibitor, single point].
For CC(=O)Nc1cc(-c2ccc(C(=O)NC3CC3)cc2)cn2c(-c3ccc(F)c(Cl)c3)cnc12, the Potency was inconclusive: 35.5 µM [inhibitor, single point].
In the case of CC(=NNC(=S)N1CC2CCC(CC2)C1)c1nccs1, the Potency is reported as inconclusive: 0.316 µM [inhibitor, full curve, poor fit].
For O=C1NC(=O)C(=Cc2ccc(-c3ccc(Cl)cc3)o2)C(=O)N1, the Potency was inconclusive: 10 µM [inhibitor, partial curve, poor fit].
With Cc1ccc2c(c1)C1CN(C)CCC1N2C(=O)c1cccs1 (stereo not drawn) the Potency was “inactive”.
With COC(=O)C1=C(c2ccc(-c3ccccc3)c(F)c2)C[C@@H]2CC[C@H]1N2C(=O)NCCOc1ccccc1 the Potency was inconclusive: 35.5 µM [inhibitor, single point].
For CC(=O)Nc1ccc(OC(=O)N2CCN(/[N+]([O-])=N/Oc3ccc([N+](=O)[O-])cc3[N+](=O)[O-])CC2)cc1, the Potency was inconclusive: 35.5 µM [inhibitor, single point].
In the case of Cc1cccc(NC(=O)C(C)N2CC=C(c3ccccc3)CC2)c1 (stereo not drawn), the Potency is reported as inconclusive: 14.1 µM [inhibitor, single point].
For C=CCN1CCc2cccc3c2[C@H]1Cc1ccc(O)c(O)c1-3, the Potency was inconclusive: 35.5 µM [inhibitor, single point].
With C=CCCC1(CC(C)C)C(=O)NC(=S)NC1=O the Potency was “inactive”.
For COC(=O)C1=C(c2cc3ccccc3s2)C[C@@H]2CC[C@H]1N2C(=O)N1CCCC1, the Potency was inconclusive: 11.2 µM [inhibitor, partial curve, poor fit].
In the case of O=C(NCC1=C(c2ccc3ccccc3c2)C[C@@H]2CC[C@H]1N2Cc1ccco1)c1ccc([N+](=O)[O-])cc1, the Potency is reported as inconclusive: 17.8 µM [inhibitor, single point].
For COC1/C=C/C=C(\C)Cc2cc(O)c(Cl)c(c2)N(C)C(=O)CC(OC(=O)C(C)C)C2(C)OC2C(C)C2CC1(O)NC(=O)O2 (stereo not drawn), the Potency was inconclusive: 35.5 µM [inhibitor, partial curve, poor fit].
For O=C1NC(=O)C(=Cc2ccc(-c3ccccc3[N+](=O)[O-])o2)C(=O)N1, the Potency was inconclusive: 22.4 µM [inhibitor, single point].
For Cc1cccc(Cn2cccc(C(=O)Nc3cc(C)on3)c2=O)c1, the Potency was inconclusive: 22.4 µM [inhibitor, single point].
In the case of COc1cccc(C(c2nnnn2-c2ccc3c(c2)OCCO3)N2CCC(n3c(=O)[nH]c4ccccc43)CC2)c1OC (stereo not drawn), the Potency is reported as inconclusive: 35.5 µM [inhibitor, single point].
In the case of COc1ccc(OC)c(CNC(=O)CCS(=O)(=O)c2ccc3c(c2)oc(=O)n3C)c1, the Potency is reported as inconclusive: 3.16 µM [inhibitor, single point].
For CSc1ccc(CN2CCN(C(=O)COc3cccc(C)c3)CC2)cc1, the Potency was inconclusive: 10 µM [inhibitor, partial curve, poor fit] and inconclusive: 14.1 µM [inhibitor, single point].
With CC(=O)O[C@@H]1/C=C/[C@](C)(O)C[C@@H](C)C/C=C/[C@H]2[C@H](O)C(C)=C(C)[C@H]3[C@H](Cc4ccccc4)NC(=O)[C@@]123 the Potency was “inactive”.
For NCCNc1ccc([N+](=O)[O-])c2cccnc12, the Potency was inconclusive: 14.1 µM [inhibitor, single point].
For O=c1[nH]c(=O)n(-c2ccccc2F)c(O)c1/C=C1\C=Nc2ccccc21, the Potency was inconclusive: 35.5 µM [inhibitor, single point].
With CCOC(=O)C1=C(C)OC(N)=C(C#N)C12C(=O)N(C)c1ccccc12 (stereo not drawn) the Potency was inconclusive: 3.16 µM [inhibitor, partial curve, poor fit].
In the case of NS(=O)(=O)c1ccc(N=Cc2c(O)n(C3CCCCC3)c(=O)n(C3CCCCC3)c2=O)cc1, the Potency is reported as active: 15.8 µM.
With CN1C(=O)CN=C(c2ccccc2Cl)c2cc(Br)ccc21 the Potency was “inactive”.
In the case of CCCCN1CCS(=O)(=O)N(Cc2ccccc2Br)CC(C(=O)OC)C1 (stereo not drawn), the Potency is reported as inconclusive: 25.1 µM [inhibitor, partial curve, poor fit].
For Cc1c(C=O)c2ccccc2n1Cc1cccc(F)c1, the Potency was active: 1.78 µM.
With O=Cc1cn(CCCOc2ccccc2)c2ccccc12 the Potency was inconclusive: 22.4 µM [inhibitor, single point].
With COc1ccc2cc1Oc1ccc(cc1)C[C@H]1c3cc(c(OC)cc3CCN1C)Oc1c(OC)c(OC)cc3c1[C@@H](C2)N(C)CC3 the Potency was “inactive”.
For O=c1c2cc(Cl)cc(Cl)c2nc(CN2CCOCC2)n1-c1ccccc1F, the Potency was “inactive”.
In the case of OC[C@H]1O[C@@H](n2cnc3cc(Cl)c(Cl)cc32)[C@H](O)[C@@H]1O, the Potency is reported as inconclusive: 25.1 µM [inhibitor, single point].
In the case of OC(CC#CCN1CCCCCC1)(c1ccccc1)C1CCCC1 (stereo not drawn), the Potency is reported as inconclusive: 22.4 µM [inhibitor, single point].
For O=c1c2ccccc2nc(-c2ccoc2)n1-c1ccccc1, the Potency was “inactive”.
In the case of COC(=O)C1=C(c2ccc(-c3ccccc3)c(F)c2)C[C@@H]2CC[C@H]1N2C(=O)NCCOc1ccccc1Cl, the Potency is reported as inconclusive: 11.2 µM [inhibitor, single point].
With COc1ccc(C2=CC(c3ccc(OC)c(OC)c3)c3c(c4ccccc4oc3=O)O2)cc1OC (stereo not drawn) the Potency was inconclusive: 0.631 µM [inhibitor, full curve, poor fit].
With CCN1C(=O)/C(=C/c2ccc(N(CC)CC)cc2OC)C(=O)NC1=S the Potency was “inactive”.
In the case of C[C@]12C=CC(=O)C=C1C=C[C@@H]1C2CC[C@]2(C)C(=O)CCC12 (stereo partly drawn), the Potency is reported as inconclusive: 0.891 µM [inhibitor, full curve].
With COc1cc([C@@H]2c3cc4c(cc3[C@H](OC(C)=O)[C@H]3COC(=O)[C@H]23)OCO4)cc(OC)c1OC the Potency was inconclusive: 39.8 µM [inhibitor, partial curve, poor fit].
For ON1C2CCCCC2N(O)C1c1ccccc1F (stereo not drawn), the Potency was “inactive”.
